Experimental data as given in PMC4336329 (PLoS ONE, 2015).
Hit rate of the full screen: of about 310,000 compounds, about 14,000 (4.5%) showed an effect of 50% or more. Effects have a minus sign here. This is one part of the list.

target: human ether-à-go-go-related gene (hERG) potassium channel (human, UniProt Q12809); assay: primary screen, population patch clamp on CHO cells stably expressing hERG
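Note: peak tail current of the secondary pulse compared with the same well before compound.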

human ether-à-go-go-related gene (hERG) potassium channel, sequence (Q12809 whole entry, looked up): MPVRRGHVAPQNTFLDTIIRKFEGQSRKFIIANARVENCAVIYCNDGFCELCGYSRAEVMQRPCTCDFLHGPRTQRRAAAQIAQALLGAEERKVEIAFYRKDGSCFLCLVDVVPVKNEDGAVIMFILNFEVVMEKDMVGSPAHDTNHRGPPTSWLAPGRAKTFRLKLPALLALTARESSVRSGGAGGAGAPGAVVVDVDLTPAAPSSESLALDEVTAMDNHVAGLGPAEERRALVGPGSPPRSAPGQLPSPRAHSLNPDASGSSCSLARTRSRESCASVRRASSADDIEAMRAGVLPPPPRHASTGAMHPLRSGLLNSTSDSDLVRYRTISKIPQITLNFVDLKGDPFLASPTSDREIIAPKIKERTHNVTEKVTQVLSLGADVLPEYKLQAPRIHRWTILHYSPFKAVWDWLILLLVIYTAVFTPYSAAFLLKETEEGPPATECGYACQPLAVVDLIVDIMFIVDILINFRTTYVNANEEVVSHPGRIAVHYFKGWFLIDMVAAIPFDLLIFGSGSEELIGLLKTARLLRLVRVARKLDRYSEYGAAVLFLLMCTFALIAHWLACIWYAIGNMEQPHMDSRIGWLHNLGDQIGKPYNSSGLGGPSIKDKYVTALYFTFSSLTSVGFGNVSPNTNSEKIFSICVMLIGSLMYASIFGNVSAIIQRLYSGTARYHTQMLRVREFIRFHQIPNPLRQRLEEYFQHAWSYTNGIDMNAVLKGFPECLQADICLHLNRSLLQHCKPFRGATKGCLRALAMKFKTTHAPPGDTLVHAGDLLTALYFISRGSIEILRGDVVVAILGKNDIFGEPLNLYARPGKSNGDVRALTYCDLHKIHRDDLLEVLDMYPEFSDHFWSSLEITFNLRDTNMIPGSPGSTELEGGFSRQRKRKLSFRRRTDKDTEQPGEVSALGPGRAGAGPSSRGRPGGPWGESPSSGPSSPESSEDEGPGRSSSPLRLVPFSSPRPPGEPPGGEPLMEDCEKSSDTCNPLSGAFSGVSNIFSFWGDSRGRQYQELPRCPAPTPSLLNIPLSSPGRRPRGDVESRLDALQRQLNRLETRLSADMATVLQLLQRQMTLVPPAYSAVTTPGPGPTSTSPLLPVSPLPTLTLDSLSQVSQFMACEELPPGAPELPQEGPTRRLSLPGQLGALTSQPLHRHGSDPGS

First: CCCOc1ccccc1-c1nc2n[nH]nc2c(=O)[nH]1
Second: COc1ccccc1C1=Nc2cccc3cccc(c23)N1
The “hERG current change (%, negative = inhibition) at 10uM” value of the first is lower: -56.3% for the first, -4.52% for the second.

Compared with COc1ccc(C(=O)C2C(c3ccc(-c4ccccc4[N+](=O)[O-])o3)NC(=O)NC2(O)C(F)(F)F)cc1 (centres unmarked), COC(=O)C1=C(c2ccccc2OCc2ccccc2)C[C@@H]2CC[C@H]1N2C(=O)NCc1ccc(OC)cc1 is lower in “hERG current change (%, negative = inhibition) at 10uM” value: 4.9% for the first, -6.18% for the second.

Compared with CC(C)OCCCNC(=O)c1ccc(Br)cc1, C/C=C(\C)CN1CCC(n2nccc2NC(=O)c2ccc(OC)cc2)CC1 is higher in “hERG current change (%, negative = inhibition) at 10uM” value: -8.3% for the first, 2.92% for the second.

Compared with CC(C)(C)N1CC(C(=O)Nc2cccc(Cl)c2Cl)CC1=O (centres unmarked), Cc1ccc(NC(=O)CNc2ccccc2N2CCCC2=O)cc1S(=O)(=O)N1CCCCC1 is lower in “hERG current change (%, negative = inhibition) at 10uM” value: 11.1% for the first, -24.4% for the second.

First: CCOC(=O)c1sc(NC(C)=O)c(C(=O)OCC)c1C
Second: CCOC(=O)c1c(C)nc2c(C)cccn12
The “hERG current change (%, negative = inhibition) at 10uM” value of the first is higher: -0.845% for the first, -6.9% for the second.

Compared with COc1ccc2ccc(Oc3ncccn3)cc2c1, COc1ccc([C@H]2CC(=O)C=C(/C=C/Cc3ccccc3)C2)cc1 is lower in “hERG current change (%, negative = inhibition) at 10uM” value: -1.28% for the first, -2.89% for the second.

Compared with COc1ccc(/C=C/C(=O)O)cc1COc1ccccc1C, CCOC(=O)c1ccccc1OCc1cc(/C=N/NC(=O)c2ccncc2)ccc1OC is higher in “hERG current change (%, negative = inhibition) at 10uM” value: -11.2% for the first, 9.72% for the second.

Compared with COc1ccc(CN2C(=O)CN=C2Nc2cc(C)ccc2C)cc1.Cl, Cc1ccc(C)c(OCC(=O)N/N=C/c2c(C)nn(-c3ccccc3)c2Cl)c1 is higher in “hERG current change (%, negative = inhibition) at 10uM” value: 1.79% for the first, 13.4% for the second.

First: COc1ccc(C2NC(=O)C(C#N)=C(S)N2c2ccccc2)cc1OC (centres unmarked)
Second: COc1ccc(OC)c(-c2cc(C(=O)Nc3c(C)nn(Cc4ccccc4)c3C)no2)c1
The “hERG current change (%, negative = inhibition) at 10uM” value of the first is higher: 10.2% for the first, -15.9% for the second.

First: Cn1c(NNC(=O)c2ccccc2F)cc(=O)n(C)c1=O
Second: CC(NC(=O)c1ccccc1)C(=O)NNC(=O)c1ccccc1Cl (centres unmarked)
The “hERG current change (%, negative = inhibition) at 10uM” value of the first is higher: -1.49% for the first, -3.51% for the second.

Compared with C=CCOc1c(CCC)cc(CCC)cc1C(N)=O, CCOc1ccc(CN(C)C(=O)CNC(=O)c2cc(OC)c(OC)c(OC)c2)cc1 is higher in “hERG current change (%, negative = inhibition) at 10uM” value: -24.6% for the first, 9.02% for the second.

Compared with N#CCC(=N)N1CCN(c2ccccc2Cl)CC1, CCOc1ccccc1N1CCN(C(=O)Nc2cccc(Cl)c2)CC1 is higher in “hERG current change (%, negative = inhibition) at 10uM” value: -18.4% for the first, -16% for the second.

Going from Cc1ccc(C(=O)N2CCN(Cc3ccc4c(c3)OCO4)CC2)o1 to O=C(Nc1ccc2c(c1)OCO2)N1CCN(C(=O)C2CCCO2)CC1 (centres unmarked), the “hERG current change (%, negative = inhibition) at 10uM” value rises from -26.7% to -6.35%.

Compared with Br.c1ccc(-c2cn3c4c(sc3n2)CCCC4)cc1, Cc1oc2c(c1C(=O)Nc1ccc(C(=O)O)cc1)CCCC2 is lower in “hERG current change (%, negative = inhibition) at 10uM” value: 11.6% for the first, -8.8% for the second.

Going from O=C(O)c1cc(-c2ccccc2)n(-c2ccccc2)n1 to O=S(Cc1cc(Oc2ccccc2)nc(-c2ccccc2)n1)c1ccccc1 (centres unmarked), the “hERG current change (%, negative = inhibition) at 10uM” value falls from -3.77% to -7.69%.

Compared with Cc1ccc(N(C(C)C(=O)O)S(=O)(=O)c2c(C)[nH]c(=O)[nH]c2=O)cc1 (centres unmarked), Cc1ccc2c(c1)C(O)(c1c(C)[nH]c3ccccc13)C(=O)N2 (centres unmarked) is higher in “hERG current change (%, negative = inhibition) at 10uM” value: 12% for the first, 25.4% for the second.

First: O=C(NNC(=O)C12CC3CC(CC(C3)C1)C2)c1ccncc1
Second: CCOC(=O)N1CCN(C(=O)c2ccc(S(=O)(=O)c3ccc(C)cc3)c(NC(C)=O)c2)CC1
The “hERG current change (%, negative = inhibition) at 10uM” value of the first is higher: 13.2% for the first, 8.01% for the second.

Going from Cc1ccsc1C(=CCCN1CCC[C@@H](C(=O)O)C1)c1sccc1C.Cl to Cc1ccc2c(c1)C1CN(C)CCC1N2C(=O)c1ccc(Br)o1 (centres unmarked), the “hERG current change (%, negative = inhibition) at 10uM” value falls from -5.13% to -38%.

Going from O=C(NCc1ccco1)C(C(=O)c1ccc(F)cc1)n1ccccc1=O (centres unmarked) to CCn1c(=O)c(C(=O)NCc2ccc(Cl)cc2)c(O)c2ccccc21, the “hERG current change (%, negative = inhibition) at 10uM” value rises from 2.06% to 22.2%.

First: COCCn1c(SCCN2CCOCC2)nc2c1c(=O)[nH]c(=O)n2C
Second: O=C(c1cccs1)N1CCC(c2nc3c(nnn3Cc3cccc(Cl)c3)c(=O)[nH]2)CC1
The “hERG current change (%, negative = inhibition) at 10uM” value of the first is higher: 14.2% for the first, -21.4% for the second.

Going from O=Cc1c(-c2ccc(Cl)cc2)oc2ccc(O)cc12 to Cc1n[nH]c(=S)n1/N=C/c1ccccc1OCc1ccc(Cl)cc1, the “hERG current change (%, negative = inhibition) at 10uM” value rises from -3.37% to 1.76%.

First: Cc1ccc(S(=O)(=O)NCCc2nnc3ccc(SCC(=O)Nc4nc(C)cs4)nn23)cc1
Second: COc1cccc2c(=O)cc(C)n(CC(=O)Nc3ccc(C)c(C)c3)c12
The “hERG current change (%, negative = inhibition) at 10uM” value of the first is higher: -2.23% for the first, -5.88% for the second.

Going from O=c1c2cc([N+](=O)[O-])ccc2nc2n1CCCC2 to Cc1ccc(S(=O)(=O)N2CCN(C(=O)COC(=O)Cc3ccccc3)CC2)c(C)c1, the “hERG current change (%, negative = inhibition) at 10uM” value falls from 4.82% to -16.4%.

First: Cc1ccc(N=C2N=C(N)c3ccccc32)cc1C
Second: Cc1ccc(C)c(NC(=S)NC(NC(=O)OCc2ccccc2)C(Cl)(Cl)Cl)c1 (centres unmarked)
The “hERG current change (%, negative = inhibition) at 10uM” value of the first is lower: -10% for the first, 1.83% for the second.

Compared with Cc1ccc(/C=N/Nc2ccc(C(=O)O)cc2)s1.O=S(=O)(O)O, CS(=O)(=O)Nc1ccc(C2=NN(S(=O)(=O)c3ccccc3)C(c3cccs3)C2)cc1 (centres unmarked) is lower in “hERG current change (%, negative = inhibition) at 10uM” value: 8.07% for the first, -70.3% for the second.

Going from CCOC(=O)C1CCN(c2c(NC3CCCCCCC3)c(=O)c2=O)CC1 to CC(C)(C)OC(=O)NCCCC1=CC2=CC(=O)C(C)(OC(=O)C3CCCC3)C(=O)C2=CO1 (centres unmarked), the “hERG current change (%, negative = inhibition) at 10uM” value rises from -14.4% to 6.13%.

Compared with C=CCn1c(-c2cccn(Cc3cccc(Cl)c3)c2=O)n[nH]c1=S, Cc1ccc(S(=O)(=O)N2CCOCC2)cc1NC(=O)COC(=O)C1COc2ccccc2O1 (centres unmarked) is lower in “hERG current change (%, negative = inhibition) at 10uM” value: 6.96% for the first, -1.8% for the second.

Compared with CSCCC1NC2(C(=O)Nc3c(C)cc(Cl)cc32)[C@@H]2C(=O)N(C3CCCC3)C(=O)[C@H]12 (some centres unmarked), Cc1c(C)c(C)c(S(=O)(=O)N2CCC3(CC2)OCCO3)c(C)c1C is higher in “hERG current change (%, negative = inhibition) at 10uM” value: -4.61% for the first, -0.826% for the second.
